PubChem BioAssay (NCI)
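The compound was tested at five concentrations on cells cultured in 96-well plates, with a 48-hour exposure period. Here, GI50 denotes the concentration required for 50% inhibition of growth. Definition used: TGI = concentration required for complete inhibition of growth.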

Test system: NCI-H322M lung
Assay: inhibition of tumour cell growth, NCI panel, 48 h

SMILES	TGI	GI50
Cc1cc(Cl)ccc1NC(=O)CCCC(=O)C1CCC/C1=N\NC(=O)CC#N (stereo not drawn)	> 100 µM	
CCOC(=O)C1C(c2ccc(O)c(OC)c2)c2c([nH][nH]c2=O)CC1(C)O (stereo not drawn)	> 100 µM	
CSCC[C@H](NC(=O)[C@H](CC(C)C)NC(=O)[C@@H](Cc1ccccc1)NC(=O)CNC(=O)[C@@H](NC(=O)[C@H](C)NC(=O)[C@H](Cc1c[nH]c2ccccc12)NC(=O)[C@H](CCC(N)=O)NC(=O)[C@H](N)CC(N)=O)C(C)C)C(N)=O	> 12.5 µM	
COC(=O)C1=Cc2cc(OC)c(OC)cc2[C@H](c2ccc(OC)c(OC)c2)C1C(=O)OC (stereo partly drawn)	> 100 µM	
CC(C)(C)CNC(=O)NCn1cc(-c2ccccc2)nn1	> 100 µM	
CC(=O)OCC1=C(C(=O)O)C(c2ccc3c(c2)OCO3)c2cc3c(cc2O1)OCO3 (stereo not drawn)	> 100 µM	
CCOP(=O)(Nc1ccccc1P(=O)(OCC)OCC)OCC	> 100 µM	
NC1=NN(c2ccccc2)C(=O)C1/C(=N\NC(=O)c1cc2ccccc2cc1O)C(=O)Nc1cccc(C(F)(F)F)c1 (stereo not drawn)	> 100 µM	
Cc1cc(C)nc(SCC(=O)OC2CC(C)CCC2C(C)C)n1 (stereo not drawn)	69.9 µM	
NCCCCCCCCCCCn1c2c(c3ccccc3c1=O)C(=O)c1ccccc1-2	11.8 µM	3.78 µM
C#CC[C@@H]1C[C@]2(C)[C@H]3CC=C4[C@H]5[C@@H](C)[C@H](C)CC[C@]5(C(=O)NCCCN5CCN(CCCN)CC5)CC[C@@]4(C)[C@]3(C)CC[C@H]2C(C)(C)[C@H]1OC(C)=O	3 µM	1.63 µM
CCN(CC)CCOc1ccc(/C=C2\C[C@H]3[C@H]4CC=C5C[C@@H](O)CC[C@]5(C)[C@H]4CC[C@]3(C)[C@H]2O)cc1OC	13.7 µM	6.69 µM
COC(=O)/C=C(/C(=O)OC)c1cc2ccc3c([nH]c4ccccc43)c(C)c-2c1	41.5 µM	
CSc1cc(Br)ccc1-n1c(C(=O)c2ccccc2)c(SC)n(-c2ccccc2)c1=O	> 100 µM	
Cn1cc(S(=O)(=O)NC(=O)Nc2ccc(Cl)cc2)c2ccccc21	> 100 µM	
c1ccc(Nc2nc(-c3ccccn3)cs2)nc1		0.274 µM
COC1=CC(=O)c2c(cc(COP(=O)(OCC3OC(n4cc(F)c(=O)[nH]c4=O)CC3O)N(C)CCCCCl)n2C)C1=O (stereo not drawn)	95.7 µM	

SMILES	TGI	GI50
CN(C)CCC=C1c2ccccc2C(C)(C)c2ccccc21	34 µM	16.3 µM
Cc1cc(C)c2c(c1)C1=NCCN1C2(O)c1ccc(Cl)cc1 (stereo not drawn)	20 µM	
CCN(Cc1ccccc1Cl)c1ccc(CO)c(Cl)c1	20.8 µM	7.56 µM
NC(=O)C(=CNC(=S)Nc1ccc(Cl)c(Cl)c1)C(N)=O	> 100 µM	
Cc1c(/C=N/NC(=S)Nc2ccccc2)c(=O)n(-c2ccccc2)n1C	> 100 µM	
NC(=S)N/N=C/c1ccc(N)cn1	> 10 µM	
CC(=O)[CH-]C(=O)c1ccccc1.CC(=O)[CH-]C(=O)c1ccccc1.CC[C@H](/C=C/C(C)[C@H]1CCC2[C@@H]3CC=C4C[C@@H]([O-])CC[C@]4(C)C3CC[C@@]21C)C(C)C.CC[O-].[Ti+4] (stereo partly drawn)	> 100 µM	> 100 µM
CC1=NN2C(c3ccc(C)cc3)=CSC2=NC(C)(C)C1	> 100 µM	
C/C=C(/CCC1NCCC2c3ccccc3NC12)[Si](C)(C)C (stereo not drawn)	26 µM	
CCCC[n+]1c(/C=C\c2c(OC)cc(OC)cc2OC)ccc2ccccc21	8.08 µM	2.45 µM
CCCCCCC/C=C/[C@H]1O[C@]2(O)C(=O)C=C3C[C@@H](O[C@@H]4O[C@H](CO)[C@@H](O)C(O)[C@@H]4O)C[C@@H]3[C@H]2C=C1C (stereo partly drawn)	10.5 µM	5.32 µM
COc1ccc(P2(=S)SP(=S)(c3ccc(Cl)cc3)S2)cc1 (stereo not drawn)	> 100 µM	
CCOC(=O)NC(C(=O)OCC)(N1CCN(c2cc3c(cc2F)c(=O)c(C(=O)O)cn3CC)CC1)C(F)(F)F (stereo not drawn)	> 100 µM	
CCOC(=O)/C(N=Nc1ccc(-n2c(C)nc3ccc(Br)cc3c2=O)cc1)=C(/C)O	> 100 µM	
Cc1cccc2nc3cccc(C(=O)NCCNCCNCCNC(=O)c4cccc5nc6cccc(C)c6nc45)c3nc12	> 21.2 µM	< 0.0208 µM
CC1SC2(CCC(c3ccccc3)CC2)N(NC(=O)c2[nH]c3ccc(F)cc3c2-c2ccccc2)C1=O (stereo not drawn)	49.5 µM	18.4 µM
